{
  "source": "paper PMC12136788",
  "binders": {"B1": {"name": "chr14:69053859:69055611:-|CDS|ENSG00000139990|control|control|control (ssRNA)", "RNA": "GGGAGUUCUACAGUCCGACGAUCUGUGAGACCCCCAAUGCUGGAACAAGAGAGGACCCCACUGACACCCCAGCCACAGAUAGUAGCAGGGCUGUUCAUGGCCACAGUGGCCUCAAAAGGCAACGAAUUGAAUUGGAAGAUACACAACAGAGGAUUGAGCAUCA"}, "B2": {"name": "chr15:69271217:69271318:+|3pUTR|ENSG00000138604|msi1|total|mutant (ssRNA)", "RNA": "GGGAGUUCUACAGUCCGACGAUCGCAACAGCAAGUUGAUUUCUUGUGAUCCCAGAAUUUUCUAAGAGGAUGAGUUGAAUCUACCGCAGCAUUGUCAGUACAGACCAGUGGUUCUCAAACUUUAAAAUGCCUCAGCAUCACUUGCAACAGAGGAUUGAGCAUCA"}, "B3": {"name": "chr1:154584646:154584747:-|3pUTR|ENSG00000160710|unk|total|mutant (ssRNA)", "RNA": "GGGAGUUCUACAGUCCGACGAUCAUGCUCCAGUGACAGAUGGAUCCGGGUGUGUCAUACCCGGGUGUGAGAGAGGCCGGUCGCCGCAUUCCUCAUCACAUGGUCAGGGGAUUUUUUUUUCUCCUUUUUUUUUCUUUUUAAGCCCAACAGAGGAUUGAGCAUCA"}, "B4": {"name": "chr6:35869508:35869609:-|CDS|ENSG00000096063|unk|FALSE|unique (ssRNA)", "RNA": "GGGAGUUCUACAGUCCGACGAUCGACACCAUGGUGUGCCAGUCUUCCUCAACUGUAGGUCAGUCAUUCAGUGAACAACACAUUAGCCAACUUCAAGAAAGCAUUCGGGCAGAGAUACCCUGUGAAGAUGAACAAGAGCAAGAACAACAGAGGAUUGAGCAUCA"}, "B5": {"name": "chr1:184691659:184691688:-|3pUTR|ENSG00000116406|msi1_unk|total|mutant (ssRNA)", "RNA": "GGGAGUUCUACAGUCCGACGAUCCUCCAACGUUGUAAUUACAACUCUACAUUCAUUUACUUACUUGACAUACUGCCACAAAGCCGUUUUUGAGUUCAUUAAAAAUUCCAAAGGCAUCCGUUGUUUUUUUUUUUUUCCGUGUUUCAACAGAGGAUUGAGCAUCA"}, "B6": {"name": "chr7:66152395:66152486:+|3pUTR|ENSG00000241258|msi1_unk|FALSE|overlapping (ssRNA)", "RNA": "GGGAGUUCUACAGUCCGACGAUCCGUUGAGAGGAUUGUUUAUUUGAUUUUUAUCCUCAUCCCAGCAGGCCUGGCUUUGUGGUUAGUUGGGUACAUCACAAAAAUAAGUUAAAAAGAAAUAUUUGUGCCUUGGGGAGAAGAAACCAACAGAGGAUUGAGCAUCA"}, "B7": {"name": "chr18:67512643:67512744:-|CDS|ENSG00000171451|unk|FALSE|bound_elsewhere (ssRNA)", "RNA": "GGGAGUUCUACAGUCCGACGAUCGCCAUGAUGGAUGUGUGGGAUGCACAUUACAAAAUGUUUUGGUUUGAUCAUCAUGGCAAUAGUCCCAUGGCCAGUAUACAGGAAGCAGAGCAAGCUGCUGAAUUUAAAAAACGAUGGACUCAACAGAGGAUUGAGCAUCA"}, "B8": {"name": "chr14:51255895:51255996:+|3pUTR|ENSG00000139921|msi1_unk|total|mutant (ssRNA)", "RNA": "GGGAGUUCUACAGUCCGACGAUCGUGAAUCCAUCCGAUUUACAGUAUCGUAAUAUACAAGUUUUCUUUAAAGCCCUCUCCUUCCGAAUUUAAAAUAUUGUACCAUUGAAGAGUUUGGAUGUGUAACUUGUGAUGCCUCCGAAACAACAGAGGAUUGAGCAUCA"}, "B9": {"name": "chr16:2586768:2586869:+|CDS|ENSG00000140992|unk|FALSE|bound_elsewhere (ssRNA)", "RNA": "GGGAGUUCUACAGUCCGACGAUCCUCCUCACACUCCCUGUCAGCCUCCGACACGGGCCUGCCCCAGAGGUCAGGCAGCAACAUAGAGCAGUACAUUCACGAUCUGGACUCGAACUCCUUUGAACUGGACUUACAGUUUUCCGACAACAGAGGAUUGAGCAUCA"}, "B10": {"name": "chr17:51192749:51193016:-|CDS|ENSG00000011258|control|control|control (ssRNA)", "RNA": "GGGAGUUCUACAGUCCGACGAUCUGGAUGGGAAGAAGAGUAUGAUCAGUGGGUAGACUGUGAGUCACCUGACCUCUAUCCUGUAGGGUGGUGUCAGUUAACUGGAUAUCAACUACAGCCUCCAGCAUCACAGUGUAAGUUGGUCAACAGAGGAUUGAGCAUCA"}, "B11": {"name": "chr7:151349087:151349194:+|CDS|ENSG00000013374|unk|FALSE|unique (ssRNA)", "RNA": "GGGAGUUCUACAGUCCGACGAUCCCUUGCUAAGCAGUACUCUGACAGACUAGAAUGCUGUGAAAAUGAAGUAGAAAAGGUAAUAGAAGAAAUACGUUGCAAGGCAAUUGAGCGUGGAACAGGAAAUGACAAUUAUAGAACAACCAACAGAGGAUUGAGCAUCA"}, "B12": {"name": "chr6:158785413:158785514:-|CDS|ENSG00000092820|msi1|FALSE|unique (ssRNA)", "RNA": "GGGAGUUCUACAGUCCGACGAUCGAGCUCAUCCAGGACAUCACCCAGAAACUUUUCUUCCUCCAAGUGAAGGAAGGAAUCCUUAGCGAUGAGAUCUACUGCCCCCCUGAGACUGCCGUGCUCUUGGGGUCCUACGCUGUGCAGCAACAGAGGAUUGAGCAUCA"}, "B13": {"name": "chr4:15962460:15963129:-|CDS|ENSG00000137441|control|control|control (ssRNA)", "RNA": "GGGAGUUCUACAGUCCGACGAUCAAUCAAGCCCUGCAGGAGCUGAGGCGCCUUCACCAUGCGUGCCAGGGGGCCCCGGUGCUUAGGCCAUCCGUGUGCAGGGAGGCUGGACCCCAGGCCCAUAUGCAGCAGGUGACUUCCAGCCAACAGAGGAUUGAGCAUCA"}, "B14": {"name": "chr1:42926584:42926685:-|3pUTR|ENSG00000117394|msi1|FALSE|unique (ssRNA)", "RNA": "GGGAGUUCUACAGUCCGACGAUCGCCUGAGGGUGGAGACUAAGCCCUGUCGAGACACUUGCCUUCUUCACCCAGCUAAUCUGUAGGGCUGGACCUAUGUCCUAAGGACACACUAAUCGAACUAUGAACUACAAAGCUUCUAUCCAACAGAGGAUUGAGCAUCA"}, "B15": {"name": "chr9:128390415:128390516:+|3pUTR|ENSG00000167118|msi1|total|mutant (ssRNA)", "RNA": "GGGAGUUCUACAGUCCGACGAUCCUUACAGCUCAUUCUGCUGGGGGCCGAGAUGAGGGGAGGGAGUAAGUUAAACCUUGGACCCGCAAGCCGAAGCCUGGGGGGAUGCGUGUGCCUCAGUUUCCUCCUCCACAACUGAAUAUACAACAGAGGAUUGAGCAUCA"}, "B16": {"name": "chr17:35009752:35009853:-|3pUTR|ENSG00000092871|msi1|FALSE|unique (ssRNA)", "RNA": "GGGAGUUCUACAGUCCGACGAUCAUUCAGCUACUCAGUUCCUCUGUAAAACAGGUCUAUGUAUGUGCAAUUCAGCUAAGAUCUAGCAGUAACUUAAGGGCAGAAGCUGGCUCUCUACUUACAACCUGCUUUCUCUGCUGAAGCCAACAGAGGAUUGAGCAUCA"}, "B17": {"name": "chr15:93024873:93024975:+|3pUTR|ENSG00000173575|unk|total|mutant (ssRNA)", "RNA": "GGGAGUUCUACAGUCCGACGAUCGGUCCAGCUCUGAUUCGGGUCACCACUCCUGCACUUUGGCACCCCAUCCCAUUCCAGCCCCGUUCUGGCCUCCCACUUUGACGGGCACUUGGAGGAGGAGCUGACUGUGUGUGUACCAGCCAACAGAGGAUUGAGCAUCA"}, "B18": {"name": "chr10:26980575:26980839:-|three_prime_utr|ENSG00000107890|control|control|control (ssRNA)", "RNA": "GGGAGUUCUACAGUCCGACGAUCGCUUACUCCGACCUCUCUGAACUUCCUGGACCAGAUCUGUUUCCUCUGCCUGCAUGCUCUAGCCUACCAUCUUCCUCUCCUUGUCUGCUACUCACUCAACAGAAGGCAACAGGGUGGUCUCAACAGAGGAUUGAGCAUCA"}, "B19": {"name": "chr2:176131361:176131462:+|CDS|ENSG00000175879|unk|FALSE|unique (ssRNA)", "RNA": "GGGAGUUCUACAGUCCGACGAUCGGAAUUUCUUUUUAACCCCUAUCUGACCAGGAAAAGAAGAAUCGAGGUUUCCCACGCCCUAGCCCUCACCGAGAGACAGGUAAAAAUCUGGUUCCAGAACAGGAGAAUGAAAUGGAAAAACAACAGAGGAUUGAGCAUCA"}, "B20": {"name": "chr3:120396629:120396730:-|3pUTR|ENSG00000163430|msi1|total|mutant (ssRNA)", "RNA": "GGGAGUUCUACAGUCCGACGAUCGCCUUCAUUUCCCGGAGUGCUUUAAGAGAAACUGUAAAUGGUGCUCUGGGGCUGGAGGCCCGUAAGGAAACUGCAUCACGAUUGAAAGAGGAACAGACCCAAAUCUGAACCUCUUUUGAGCAACAGAGGAUUGAGCAUCA"}, "B21": {"name": "chr10:63214216:63214317:-|CDS|ENSG00000171988|unk|total|mutant (ssRNA)", "RNA": "GGGAGUUCUACAGUCCGACGAUCUAAGCUGCAUAAGCGAAGUCCACCUCCAGAGACUAUAAAAUCUAAACUUAAUACUUCAGCCGAUACUCACAAGAUAAAAUCCAGCCCAUCACCUGAAGUUGUUAAACCCAAAAUAACUCACAACAGAGGAUUGAGCAUCA"}, "B22": {"name": "chr8:23842656:23842757:-|3pUTR|ENSG00000159167|msi1|total|mutant (ssRNA)", "RNA": "GGGAGUUCUACAGUCCGACGAUCCCCCAAACUUAUGGACACUGCCUCCGCCUCUUGGAAAUCAGGCCGACCAUAUUCUAAGUCCGACUCUUCCCCUCCCUCCCACACUUCCCACCCCCAGGCAAGGCUGACUUCUCUGAAUCACAACAGAGGAUUGAGCAUCA"}},
  "note": "The list shows a part of the results.",
  "data": [
    {"biological_target": "MSI1 full-length (mouse, UniProt Q61474 1-362)", "sequence (Q61474 whole entry)": "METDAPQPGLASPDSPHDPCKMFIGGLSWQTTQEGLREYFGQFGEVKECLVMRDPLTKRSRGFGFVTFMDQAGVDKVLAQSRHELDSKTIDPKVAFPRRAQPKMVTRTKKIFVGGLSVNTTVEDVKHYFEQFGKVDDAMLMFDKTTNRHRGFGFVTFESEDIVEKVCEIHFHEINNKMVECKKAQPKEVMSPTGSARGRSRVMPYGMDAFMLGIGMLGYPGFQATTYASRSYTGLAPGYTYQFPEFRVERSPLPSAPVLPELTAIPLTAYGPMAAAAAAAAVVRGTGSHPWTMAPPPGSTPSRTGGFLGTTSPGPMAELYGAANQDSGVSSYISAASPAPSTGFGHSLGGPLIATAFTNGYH", "test": "nsRBNS (natural sequence RNA bind-n-seq); RBNS binding buffer (assumed for nsRBNS): 25 mM Tris pH 7.5, 150 mM KCl, 3 mM MgCl2, 0.01% Triton X-100, 500 ug/ml BSA, 20 U/ml SUPERase-In, 4 C; UNK is unkempt and MSI1 is Musashi-1; names of the RNAs are library labels; protein concentration not given here; high values mean tight binding", "units": {"binding signal": "enrichment R"}, "values": [
      {"binder": "B1", "binding signal": 0.764},
      {"binder": "B2", "binding signal": 0.318},
      {"binder": "B3", "binding signal": 0.712},
      {"binder": "B4", "binding signal": 0.39},
      {"binder": "B5", "binding signal": 0.638},
      {"binder": "B6", "binding signal": 0.782},
      {"binder": "B7", "binding signal": 0.328},
      {"binder": "B8", "binding signal": 0.489},
      {"binder": "B9", "binding signal": 0.781},
      {"binder": "B10", "binding signal": 0.441},
      {"binder": "B11", "binding signal": 10.7},
      {"binder": "B12", "binding signal": 0.366},
      {"binder": "B13", "binding signal": 0.447},
      {"binder": "B14", "binding signal": 0.514},
      {"binder": "B15", "binding signal": 0.592},
      {"binder": "B16", "binding signal": 0.831},
      {"binder": "B17", "binding signal": 1.32},
      {"binder": "B18", "binding signal": 0.694},
      {"binder": "B19", "binding signal": 0.392},
      {"binder": "B20", "binding signal": 0.241},
      {"binder": "B21", "binding signal": 0.493},
      {"binder": "B22", "binding signal": 0.838}
    ]}
  ]
}
